The results in this text go back to the RNAGym collection of RNA variant scans (doi:10.1093/nar/gkz1192).

The source gives no read counts; variants with many changes may rest on few reads.

The chains are these.
B1: CPEB3 Ribozyme (parent)
chain: UAACAGGGGGCCACAGCAGAAGCGUUCACGUCGCAGCCCCUGUCAGAUUCUGGUGAAUCUGCGAAUUCUGCUGUAUAUCUC

The data set covers variants of B1. As to the kind of experiment: self-cleavage, relative activity (ratio to wild type); higher = more cleavage; in vitro, sequencing. An outline of the steps: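 For each CPEB3 ribozyme variant, relative activity is its cleaved/total read fraction divided by the unmutated ribozyme's. Barcoded error-prone PCR libraries were transcribed by T7 RNA polymerase (5 hours, 37°C) and held in DNase I for 15 min before an EDTA stop, with cleavage occurring throughout. Template-switching reverse transcription and Illumina sequencing were used to read the RNAs. A 5-read minimum applied, and results are the mean of three batches.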
As for UAACAGGGGGCCACAGCAGAAGCGCUCACGUCGCAGCCCCUGUCAGAUUCUGGUGAAUCUGGGAGUUCUGCUGUAUAUCUC [U25C C62G A65G], the self-cleavage was determined as 0.42.

Regarding UAACAGGGGGCCACAGCAGAAGCGCUCACGUCGCAGCCCCUUUCAGAUUCUGGUGAAUCUGCGGAUUCCGCUGAAUAUCCC [U25C G42U A64G U69C U74A U80C], the self-cleavage came to 0.1.

For UAACAGGGGGCCACAGCAGAAGCGCACACGUCGCGGCCCCUGUCAGAUUCUGGUGGAUCUGCGAAUUCUGCUGUAUAUCUC [U25C U26A A35G A56G], the self-cleavage stood at 0.16.

Regarding UAACAGGGGGCCACAGCAGAAGCGCUCACGUCGCAUCCCCUGUCAGAUUCUGGUGAAUCUGCGAAUUCAGCUGUAUAUCUC [U25C G36U U69A], the self-cleavage came to 0.14.

In the case of UAACAGGGGGCCACAGCAGAAGCGCUCACAUCGCAGCCCCUGUCUGAUUCUGGUGAAUCUGCGAAUUCUGCUGUGUAUCUC [U25C G30A A45U A75G], the self-cleavage is 0.08.

Regarding UAACAGGGGGCCACAGCAGAAGCGCUCACGUCACAGCCCCUGUCAGAUUCUGGUGAAUCUGCGAAUUCUGCUGUAUACCUC [U25C G33A U78C], the self-cleavage is 0.38.

On to UAACAGGGGGCCACAGCAGAAGCGCUCACGUCGCAGCCCCUGUCAGAUUCUGGUGAAUCUGCGAAUUCUACUGUAUACCUC [U25C G70A U78C], for which the self-cleavage was 0.22.

Take UAACAGGGGGCCACAGCAGAAGCGCUCACGUCGCAGCCCCUGUCAGAUUCUUGUGAAUCUGCGAAUUCUGCUGUAUAUCCC [U25C G52U U80C]: the self-cleavage amounted to 0.37.

For UAACAGGGGGCCACAGCAGAAGCGCUCACGUUGCAGCCCCUGUCAGAUUCCGGUGAAUCUGCGAAUUCUGCUGUAUAUCUC [U25C C32U U51C], the self-cleavage came out at 0.7.

UAACAGGGGGCCACAGCAGAAGCGCACACGUCGCAGCCCCUGUCAGUCUCUGGUGAAUCUGCGAAAUCCGCUGUAUAUCUC [U25C U26A A47U U48C U66A U69C]: the self-cleavage turned out to be 0.25.

As for UAACAGGGGGCCACAGCAGAAGCGCUCACGUCGCAACCCCUGUCAGAUUCUGGCGGAUCAGCGAAUUCUGCUGUAUAUCUC [U25C G36A U54C A56G U60A], the self-cleavage came out at 0.11.

Turning to UAACAGGGGGCCACAGCAGAAGCGCACACGUCGCAGCCCCUGUCAGAUUCUGGUGGAUCUGCGAAUUCUGCUGUAUAUCUC [U25C U26A A56G], the self-cleavage came to 0.07.

Regarding UAACAGGGGGCCACAGCAGAAGCGCUCACGUCGCAGCCCCUGUCAGAUUCUGGUGAAUCUCCGAACUCUGCUGAAUAUCAC [U25C G61C U66C U74A U80A], the self-cleavage turned out to be 0.18.

UAACAGGGGGCCACAGCAGAAGCGCUCACGUCGCAGCCACUGUCAGAUUCUGGUGAAUCCGCGAAUUCUGCUGUAUAUCUC [U25C C39A U60C]: the self-cleavage came out at 0.2.

Take UAACAGGGGGCCACAGCAGAAGCGCUCACGUCGCAGACCCUGUCGGAUUCUGGUGAAUCUGCGAAUUCUGCUGUAUAUCUC [U25C C37A A45G]: the self-cleavage was 0.13.

As to UAACAGGGGGCCACAGCAGAAGCGCUCACGUUGCAGCCCCUGUCAGACUCUGGUGUAUCUGCGAAUUCUGCUGUCUAUCUC [U25C C32U U48C A56U A75C], the self-cleavage came out at 0.07.

In the case of UAACAGGGGGCCACAGCAGAAGCGCUCACGUCGCAGCGUCUGUCAGAUUCUGGUGAAUCUGCGAAUUAUGCUGUAUAACUC [U25C C38G C39U C68A U78A], the self-cleavage amounted to 0.04.

With UAACAGGGGGCCACAGCAGAAGCGCUCACGUCGCAACCCCUGUCAGAUUCUGGUGAAUCUGUGAAUGCUGCUGUAUAUCUC [U25C G36A C62U U67G], the self-cleavage amounted to 0.06.

Turning to UAACAGGGGGCCACAGCAGAAGCGCUCACGUCGCAGCCCCUGUCAGAUUCUAGCGAAUCGGCGAAUACUGCUGUAUAUCUC [U25C G52A U54C U60G U67A], the self-cleavage came out at 0.11.

With UAACAGGGGGCCACAGCAGAAGCGCUCACGUCGCAGUCCCUGUCAGAUUCUGGUGAAUCUGCGAAUUCUGCUGUAUACCUC [U25C C37U U78C], the self-cleavage came to 0.21.

Consider UAACAGGGGGCCACAGCAGAAGCGCUCACAUCGCAGCCCCUGUCAGAUACUGGUGGAUCUGCGAAUCCUGCCGUAUAUCCC [U25C G30A U49A A56G U67C U72C U80C], for which the self-cleavage was 0.14.

As to UAACAGGGGGCCACAGCAGAAGCGCUCACGUCGCAGCCCUUGUCAGAUUCUGGUGAAUCUGCGAAUGCUGCUGUACGUCUC [U25C C40U U67G U76C A77G], the self-cleavage was 0.28.

In the case of UAACAGGGGGCCACAGCAGAAGCGCUCACGUCACUGCCCCUGUCAGAUUCUGGUGAAUCUGCAAAUUCUGCUGUAUAUCUC [U25C G33A A35U G63A], the self-cleavage came to 0.15.

As for UAACAGGGGGCCACAGCAGAAGCGCUCACGUCGCAGCUCCCGUCAGAUUCAGGUGAAUCUGCGAAUUCUGCUGUAUAUCUC [U25C C38U U41C U51A], the self-cleavage came out at 0.21.

With UAACAGGGGGCCACAGCAGAAGCGCUCACGUCGCAGCUCCUGUCAUAUUCUGGUGAUUCAGCGAACUCUGCUGUAUAUCUC [U25C C38U G46U A57U U60A U66C], the self-cleavage was 0.03.

For the variant UAACAGGGGGCCACAGCAGAAGCGCUCACGUCGCAGCCCCUAUCAGAUUCUGGUGAGUCUGCGAAUUCUGCCGUAUAUCUC [U25C G42A A57G U72C], the self-cleavage is 0.34.

As to UAACAGGGGGCCACAGCAGAAGCGCACACGUCGCUGCCCCUGUCAGAUUCUGGUGAAUCUGCGUAUACCGCUGUAUAUCUC [U25C U26A A35U A64U U67A U69C], the self-cleavage was determined as 0.09.

In the case of UAACAGGGGGCCACAGCAGAAGCGCUCACGUCGCAGCCCCUGUCAGAUUCUGGUGAAUCUAUGAAUUCUGCUGUAUAUCUC [U25C G61A C62U], the self-cleavage was 0.07.

For UAACAGGGGGCCACAGCAGAAGCGCUCACUUCGCAGCCCCAGCCUGAUUCUGGUGAAUCUGCGAAUUCUGCUGUGUUUCUC [U25C G30U U41A U43C A45U A75G A77U], the self-cleavage was 0.1.

In the case of UAACAGGGGGCCACAGCAGAAGCGCUCACGUCGAAGCCCCUGUCAGAUUCUGGUGGAUCUGCGAAUUCUGCUGUAUAUCUC [U25C C34A A56G], the self-cleavage amounted to 0.24.

For the variant UAACAGGGGGCCACAGCAGAAGCGCUCACGUCGAAGCCACUGUCAGAUUGUGGAGAAUCAGCGAAUUCUGCUGUAUAUCUC [U25C C34A C39A C50G U54A U60A], the self-cleavage is 0.17.

For the variant UAACAGGGGGCCACAGCAGAAGCGCUCACGUCGCAGCCCCUAUCGGAUUCUGGCGAAUCUGCGAAUUCUGCUGUAUAUCUC [U25C G42A A45G U54C], the self-cleavage came to 0.19.

Consider UAACAGGGGGCCACAGCAGAAGCGCUCACAUCGCAGCCCCUGUCUAAUUCUGGUGAAUCUGCGAAUUCUGCUGUGUAUCUC [U25C G30A A45U G46A A75G], for which the self-cleavage turned out to be 0.13.

UAACAGGGGGCCACAGCAGAAGCGCUCACGUCACAGGCCCUGUCAGAUUCUGGGGAAUGUGCGAAUUCUGCUGUAUAUCUC [U25C G33A C37G U54G C59G]: the self-cleavage came out at 0.17.
